Assay results reported in PubChem BioAssay AID1508624 (National Center for Advancing Translational Sciences (NCATS), 2021).
About 120 (0.25%) of roughly 48,000 compounds were called active. About 4% were inconclusive and are not listed. Calls come from the whole dose curve; as a rule, active = well fitted activation curve with a large enough effect; inconclusive = small, poorly fitted or top-dose-only effect, or another doubt; inactive = no such curve, though single readings can be large or run the other way. The list shows a part of the results.

assay: Primary qHTS for Identification of Small Molecule Activators of Huntingtin-Antisense Promoter Activity; conditions: HEK293 HTT-AS promoter firefly luciferase reporter, 24 h; series mostly up to 57.5 µM; activity change, positive = activation: at the top concentration; note: nearly all actives have a fitted effect of over 55% in size
Outline: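 HEK293 cells carrying firefly luciferase reporters were seeded at 2,500 per well in Opti-MEM and cultured for 24 h. They were then treated with compounds at up to 57.5 uM final for 24 h at 37 degrees C before Dual-Glo luminescence readout.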

Activity change, positive = activation, inactive:
COc1cccc(CNC(=O)CSc2nnc(C)c3c(C)n(-c4ccccc4)nc23)c1 -32.4%
NC(=O)c1cn(Cc2c(F)cccc2F)nn1 -1.26%
Cc1ccccc1Nc1c(-c2ccc(O)cc2)nc2c(C)cccn12 -5.24%
COc1ccc(NC(=O)CCS(=O)(=O)c2cc3c4c(c2)CCN4C(=O)CC3)cc1OC -14.1%
CCC(C(=O)Nc1ccc(F)cc1F)n1nc(-c2ccccc2)c2c(c1=O)CCCC2 (stereo not drawn) -26.2%
COc1cc2c(N3CCN(C(=O)Nc4ccc(OC(C)C)cc4)CC3)ncnc2cc1OCCCN1CCCCC1
COc1ccc(NC(=O)c2ccco2)cc1NC(=O)COc1cc(C)ccc1C(C)C -34.6%
Cc1nc(N)c(S(=O)(=O)c2ccccc2)c(Nc2ccc(Br)cc2)n1 -6.91%
COc1ccc(Cl)cc1S(=O)(=O)N1CCC(c2ccncc2)CC1 -29.8%
COc1cccc(/C=C/c2nc3ccccc3c(=O)n2-c2ccc(C)c(C)c2)c1OC -13%
CC(=O)N1c2ccccc2CC1C(=O)N1CCN(c2cc(Cl)ccc2C)CC1 (stereo not drawn) -15.1%
O=C(c1cccn1-c1nnc(N2CCCC2)s1)N1CCN(c2ccc(F)cc2)CC1 -13.9%
Cc1cccc(OCC(=O)NCc2ccc3c(c2)CCN3C(=O)c2ccc(Cl)cc2)c1 1.59%
O=C(c1ccc(F)cc1)N1CCN(CCc2ccncc2)CC1 -7.02%
COc1ccc(-c2nnc(SCC(=O)Nc3ccc(C)c(Cl)c3)nc2-c2ccc(OC)c(OC)c2)cc1OC -19.4%
CCOc1ccc(NC(=O)c2c(NC(=O)c3ccncc3)sc3c2CCC(C(C)(C)C)C3)cc1 (stereo not drawn) 11% [at 11.5 µM, percent change from vehicle, -100% = no light]
CCCCN(C)CCNC(=O)c1cc(-c2ccc(Cl)s2)nc2ccccc12 -22.7%
CCc1ccc(NC(=O)CN2C(=O)CC(c3ccccc3)Sc3ccccc32)cc1 (stereo not drawn) -31.4%
CC(C)(C)OC(=O)N1CCC(c2c(C(=O)NCCN3CCOCC3)cnn2-c2ccc(F)cc2F)CC1 -5.79%
COc1ccc(-c2cccc(NS(=O)(=O)c3ccc(NC(C)=O)cc3)c2)nn1 -27.8%
CCOc1ccccc1Nc1nc2c(S(=O)(=O)c3ccc(C)cc3)nnn2c2ccsc12 -7.01%
Cc1ccc(-c2nc3scc(CCNS(=O)(=O)c4ccc(Oc5ccccc5)cc4)n3n2)cc1 -84%
CCOC(=O)c1c(-c2ccccc2)csc1NC(=O)c1nc(SCC)ncc1Cl 18.3%
CCc1cccc(C)c1NC(=O)CN1C(=O)c2cccc3cccc1c23 -10.8%
CCCCCNC(=O)C1CCC(Cn2c(=O)c3sccc3n(CC)c2=O)CC1 (stereo not drawn) -22%
CCOc1cc(/C=C(\C#N)C(=O)Nc2ccc(OC)cc2)ccc1OCc1cc(=O)n2nc(CC)sc2n1 -2.13%
Cc1ccc2nc(CSc3nnc(NC(=O)c4ccc(C(C)(C)C)cc4)s3)cc(=O)n2c1 -2.66%
O=C(CSCc1ccc(F)cc1)NCc1ccc(F)cc1 5.73%
Cc1cccc(CC(=O)N2CC(=O)Nc3ccc(F)cc3C2c2ccccc2)c1 (stereo not drawn) -9.1%
Cc1ccc(CNC(=O)CSc2c(C(C)C)cnc3c2c(=O)n(C)c(=O)n3C)cc1 -19.7%
COc1cc(NC(=O)CCCc2nnc3n(C)c(=O)c4sccc4n23)cc(OC)c1OC -2.71%
CCc1ccccc1NC(=O)Nc1ccc2snnc2c1 -19.8%
CCC(CC)C(=O)N1CCc2cc(OC)c(OC)cc2C1COc1ccc(F)cc1 (stereo not drawn) -28.5%
Cc1cccc(-n2ncc(C(=O)NCc3ccc4c(c3)OCO4)c2C2CCN(C(=O)OC(C)(C)C)CC2)c1 -29.1%
O=C(CSc1nc(Nc2ccc(F)c(F)c2)c2ccccc2n1)c1ccc(Cl)cc1 -22%
CC1=C(C(=O)Nc2ccccc2)C(c2ccc(O)cc2)n2nc(-c3ccc(Cl)cc3)nc2N1 (stereo not drawn) -38%
CN1CCN(C2=Nc3cc(F)ccc3Cc3ccccc32)CC1 -17.7%
Cc1ccc(S(=O)(=O)NCCSc2nnnn2-c2ccccc2)cc1 -18.2%
COc1ccc2c(c1)NC(c1ccc(Cl)cc1)=NC(c1cccs1)=N2 -5.03%
CCn1c(CN2CCCCC2)nc2cc(NC(=O)COc3ccc(C(C)(C)C)cc3)ccc21 -31.5%
CC(C)(C)c1ccc(-c2nnc(-c3ccccc3NC(=O)c3cccc(C(F)(F)F)c3)o2)cc1 -1.02%
CCCN1C(=O)C(Cc2nc3ccccc3c(=O)n2CC)c2cc(Br)ccc21 (stereo not drawn) -27.9%
Cc1ccc(C)c(Cn2c(=O)n(Cc3ccccc3)c(=O)c3sc4ccccc4c32)c1 -11.4%
Cc1ccc(CN2C(=O)C3(c4ccccc42)N(c2ccc(C)c(Cl)c2)C(=O)CS3(=O)=O)cc1 (stereo not drawn) -37.7%
COc1ccc(NC(=O)CSc2cn(CCNC(=O)c3ccc(OC)cc3)c3ccccc23)cc1 -49.7%
Cc1cccc(C)c1NC(=O)c1ccc(N)cc1 -6.95%
COc1cccc(/C=C(\C#N)C(=O)Nc2ccc(NC(C)=O)cc2)c1OC -10.9%
Cc1oc(-c2cccc(Br)c2)nc1Cn1c(SCc2cccc(F)c2)nc2cccnc21 -18.2%
CCCCC(O)/C=C(C)/C=C/C=C/C(=O)N1CCCC1=O (stereo not drawn) 3.42%
COc1ccc(NC(=O)CCS(=O)(=O)c2ccc3c(c2)n(C)c(=O)c(=O)n3C)cc1Cl -3.1%
O=C(CCC1N=C2c3ccccc3N=C(SCc3cccc(Cl)c3)N2C1=O)NCCc1ccccc1 (stereo not drawn) -1.16%
COc1ccc(Br)cc1CNC(=O)CSc1n[nH]c(-c2ccccc2)n1 -38.3%
CCC(C)[C@H](N)c1nnc(SCc2ccc(Cl)c(Cl)c2)o1 (stereo partly drawn) -15.1%
COC(=O)c1ccc(OCC2c3cc(OC)c(OC)cc3CCN2C(=O)c2cccc(C)c2)cc1 (stereo not drawn) -36.9%
COc1cccc(N2CCN(C(=O)CN3CCSc4ccc(S(=O)(=O)N(C)C)cc43)CC2)c1 -17.6%
COc1ccc(NC(=O)C2CCN(C3=NS(=O)(=O)C(c4ccc(C)c(C)c4)=C3C)CC2)cc1OC -9.86%
COc1ccc(CNC(=O)CCS(=O)(=O)c2cc(Br)cc3c2N(C(=O)C2CC2)CC3)cc1 0.702%
COc1cccc(CNC(=O)Cn2c(=O)n3nc(-c4cccc(C)c4)nc3c3ccccc32)c1 25.1%
CCCCN(Cc1ccccc1)S(=O)(=O)c1ccc2c(c1)CCN2C(=O)C1CCC1 -6.4%
O=C(Cn1nc(Cc2cccnc2)c2ccccc2c1=O)N1CCN(c2ccc(F)cc2)CC1 -18.9%
CCCSCCCNC(=O)C1CCCN(C(=O)c2cnn(-c3ccccc3)c2-n2cccc2)C1 (stereo not drawn) -31.8%
COc1ccc(Nc2ncnc3onc(C)c23)cc1Cl -14.2%
Cc1ccc(/C=C/c2onc(C)c2S(=O)(=O)N2CCC(C(=O)NCc3ccco3)CC2)cc1 -16.3%
Cc1ccc(CCNC(=O)c2ccc3c(c2)N(Cc2cc(C)ccc2C)C(=O)c2ccccc2S3=O)cc1 (stereo not drawn) -13.7%
CCN(CC)c1ccc(NC(=O)CN2C(=O)c3cccnc3Oc3ccccc32)c(C)c1 -9.26%
CCOC(=O)c1cccc(NS(=O)(=O)c2cc(Br)cc3c2N(C(=O)C2CC2)CC3)c1 -49.1%
O=C(CCNS(=O)(=O)c1cccc2nsnc12)Nc1ccc(F)cc1 -1.28%
COc1ccc(-c2nc3cc(NC(=O)COc4ccc(F)cc4)ccc3o2)cc1 2.18%
Cc1csc2nc(-c3cccc(NC(=O)c4ccc(S(N)(=O)=O)cc4)c3)cn12 1.9%
Cc1ccc2cccc(NC(=O)c3ccc(-c4ccc(Cl)cc4Cl)o3)c2n1 18.5%
COc1ccc(OC)c(CNC(=O)c2cc(=O)[nH]c3ccc(S(=O)(=O)N4CCCCC4C)cc23)c1 (stereo not drawn) -15%
CCOc1ccc(-c2cc(C)n3nc(C(=O)Nc4cc(Cl)ccc4O)cc3n2)cc1 -16.3%
COc1cccc(NC(=O)Cn2c(=O)n(Cc3nc(-c4ccccc4)no3)c(=O)c3ccccc32)c1 -21.7%
CCC(=O)Nc1ccc(S(=O)(=O)NCc2cccn2Cc2cccc(C)c2)cc1 -35.9%
COc1ccccc1/C=C(\C#N)c1nc(-c2cc3ccccc3oc2=O)cs1 3.92%
COc1ccc(S(=O)(=O)NCCc2sc(-c3ccccc3)nc2C)cc1OC -7.91%
CCOC(=O)N1CCC(NC(=O)c2cnn(-c3ccccc3)c2C2CCN(C(=O)OC(C)(C)C)CC2)CC1 -6.35%
O=C(NCCC1=CCCCC1)c1ccc2c(c1)ncn2-c1cccc(Cl)c1 23.4%
CCc1ccccc1NC(=O)CSc1ncc2c(n1)-c1ccccc1N(C)S2(=O)=O 4.72%
CCN(C(=O)C(NS(=O)(=O)c1cccc2nsnc12)c1ccccc1)c1ccccc1 (stereo not drawn) -17%
COCCCNC(=O)CCCN1C(=O)CCn2nc(-c3cn(C)c4ccccc34)cc21 -8.55%
COc1ccc(-c2ccnc3c2c(=O)n(C)c(=O)n3C)cc1OC 6.57%
COc1ccc(OC)c(CNC(=O)CCS(=O)(=O)c2ccc3c(c2)oc(=O)n3C)c1 6.8%
Cc1ccc(NC(=O)[C@H](CSCc2ccccc2)N2Cc3ccccc3C2=O)cc1 -3.43%
Cc1cc(C)c(NC(=O)CN2C(=O)c3cccnc3Oc3ccc(Cl)cc32)c(C)c1 -12.8%
Cc1ccc(C(=O)N2c3nc(-c4ccco4)nn3C3(CCCCC3)[C@@H]3CCCC[C@@H]32)cc1 -31.8%
Cc1cc(Nc2ccc(C)c(Cl)c2)n2nc(-c3ccccc3)nc2n1 -15.4%
CC1CCN(S(=O)(=O)c2cccc(C(=O)NC3CCS(=O)(=O)C3)c2)CC1 (stereo not drawn) -13.2%
CCC1CN(C(=O)N2CCC(C(=O)NCc3cccs3)CC2)c2ccccc2O1 (stereo not drawn) -21.7%
Cc1ccc(N2C(=O)CSC23C(=O)N(CC(=O)NCCc2ccccc2)c2ccccc23)cc1 (stereo not drawn) -14.2%
COc1cccc(CNCc2c(C(=O)O)n(Cc3ccc(C)cc3)c3cc(C)ccc23)c1OC -26.4%
CC(=O)c1ccc(NC(=O)c2sc(-n3nc(C)c(Cc4ccc5c(c4)OCO5)c3C)nc2C)cc1 -5.6%
CCC1CCCCN1CCCNC(=O)c1ccc2c(c1)N(Cc1cccc(Cl)c1)C(=O)c1ccccc1S2(=O)=O (stereo not drawn) -20.5%
